In PubChem BioAssay AID463173 (ICCB-Longwood Screening Facility, Harvard Medical School, 2010):
The campaign covered roughly 52,000 compounds. About 1,700 (3.3%) were called active. No stated cut-off is given here; in the data, active means survival mostly below about 52% (no sharp cut-off); inactive means mostly above about 56%. This is one part of the list.

System: Wild type
Experiment: S. aureus survival, RN4220 and DeltatarO strains – OD600, teichoic acid synthesis inhibitors, primary screen (AID 463173)
Settings: S. aureus RN4220 wild type/DeltatarO growth, OD600, 18 h, stronger effect = lower value, screened at 18.75 µg/mL (by protocol)

| SMILES | survival |
| --- | --- |
| COc1cccc(CN2CCc3nc(Nc4ccc5c(c4)OCCO5)ncc3C2)c1OC | inactive: 84% |
| CC(=O)Nc1ccc(OCc2cc(=O)n3ccccc3n2)cc1 | inactive: 67% |
| CCOc1ccc(NC(=O)c2cc(=O)c3cc(CC)ccc3o2)cc1 | inactive: 89% |
| Cc1cccc(NC(=O)CSc2nc(=O)n(Cc3ccncc3)c3c2CCC3)c1C | inactive: 58% |
| Cc1ccc(-c2noc(-c3ccccc3NC(=O)C3CC(=O)N(c4cccc(C)c4)C3)n2)cc1 (configuration not stated) | inactive: 89% |
| N#CCN(CC#N)C(=O)Cc1cccs1 | inactive: 121% |
| N#CCCn1c(=O)n(CCC#N)c(=O)n(CCC#N)c1=O | inactive: 111% |
| CCOc1ccc(NC(=O)CSc2nc(-c3cccs3)cc(C(F)(F)F)c2C#N)cc1 | inactive: 66% |
| Oc1ccc(/C=C/c2nc(-c3ccccc3O)n(-c3ccccc3)n2)c(O)c1 | active: -1% |
| O=C(Nc1cccc(F)c1)/C(=C\c1cccs1)NC(=O)c1cccs1 | inactive: 104% |
| CCc1ccc(C2=C(C)C(N3CCC(C(=O)Nc4cccc(OC)c4)CC3)=NS2(=O)=O)cc1 | inactive: 111% |
| CCOc1ccc(Nc2c(S(=O)(=O)c3ccc(C)cc3)cnc3cc(OC)c(OC)cc23)cc1 | inactive: 74% |
| COc1ccccc1NC(=O)CSC1=Nc2ccccc2C2=NC(CC(=O)NCCc3ccccc3)C(=O)N12 (configuration not stated) | inactive: 94% |
| COc1ccc(CCNC(=O)c2ccc3c(c2)sc2nc(-c4ccc(C)cc4)cn23)cc1OC | inactive: 85% |
| NC(=S)/N=C1/CCN(c2ccccc2)N1 | inactive: 98% |
| Cc1ccc(NC(=O)C2CCN(S(=O)(=O)c3ccc4c(c3)CCCC(=O)N4)CC2)c(Cl)c1 | inactive: 51% |
| CCn1c(SCc2cccc(C(=O)O)c2)nnc1-c1ccco1 | inactive: 97% |
| CCc1ccccc1NC(=O)Cn1nnc(-c2nc(-c3ccncc3)no2)c1N | inactive: 68% |
| COc1cc(NS(=O)(=O)c2ccc3c(c2)CC(=O)N3)cc(OC)c1OC | inactive: 76% |
| COc1ccc(-c2noc(=O)n2CCCC#N)cc1OC | inactive: 99% |
| O=C(NCc1ccccc1Cl)c1ccc2c(c1)nnn2C1CCCC1 | inactive: 90% |
| COc1cccc2c1Oc1ncccc1N(c1ccc(C(=O)NCc3ccccc3C)s1)C2 | inactive: 71% |
| CCCCC(=O)Nc1ccc2nc(SCC(=O)N3CCOCC3)sc2c1 | inactive: 94% |

| SMILES | survival |
| --- | --- |
| CCOc1ccc(NC(=O)CN2CCN(CC(=O)Nc3ccc(N(CC)CC)cc3)CC2)cc1 | inactive: 80% |
| COc1cc(NS(=O)(=O)c2ccc3[nH]c(=O)[nH]c3c2)cc(OC)c1 | inactive: 80% |
| O=C(CCCc1ccccc1)NC1CC(=O)N(c2ccc(Cl)cc2)C1 (configuration not stated) | inactive: 83% |
| CC1=C(c2ccc(C(C)C)cc2)S(=O)(=O)N=C1N1CCN(c2ccc(F)cc2)CC1 | inactive: 82% |
| Cc1cccc(-c2nc3c4ccccc4nc(N4CCN(c5ccc(F)cc5)CC4)n3n2)c1 | inactive: 74% |
| Cc1ccc(OCC(=O)Nc2nnc(SCc3cc(=O)c4ccccc4[nH]3)s2)cc1C | inactive: 69% |
| COc1ccccc1C(=O)n1nc(-c2cccnc2)nc1NCc1ccccc1 | inactive: 87% |
| O=C(O)c1cccc(NC2SC(=O)N(c3ccccc3)C2=O)c1 (configuration not stated) | inactive: 114% |
| Cc1ccc(Cl)cc1NC(=O)c1ccc(NC(=O)N2CCSc3ncccc32)cc1 | inactive: 71% |
| OCCNCC(O)Cn1ccc2ccccc21 (configuration not stated) | inactive: 113% |
| COc1ccc(NC(=O)c2coc(=O)c3ccccc23)cc1OC | inactive: 144% |
| CC1=Nc2cc(C(=O)NC3CCCCC3)ccc2Sc2ccc(Cl)cc21 | inactive: 94% |
| CC(C)Sc1ncnc2c1cnn2-c1ccccc1 | inactive: 96% |
| Cc1ccc2c(CNC3CCCC3)c(C(=O)O)n(Cc3ccc(F)cc3)c2c1 | inactive: 111% |
| CN(C(=O)CSc1nc2ccccc2n1CC(=O)N(C)C1CCCCC1)c1ccccc1 | inactive: 87% |
| COc1ccc(NC(=O)C2CCN(S(=O)(=O)c3cc(-c4noc(C)n4)ccc3C)CC2)cc1 | inactive: 120% |
| Cc1cccc(NC(=O)CN2C(=O)CCn3nc(-c4cccn4C)cc32)c1C | inactive: 56% |
| Cc1ccc(C)c(NC(=O)c2cc(S(=O)(=O)NCCc3ccccc3)ccc2F)c1 | inactive: 81% |
| Cc1ccc(-c2csc3nnc(SCC(N)=O)n23)cc1 | inactive: 118% |
| O=S(=O)(NCc1ccncc1)c1ccc(C2CCCCC2)cc1 | inactive: 114% |
| CCOC(=O)C1CCCN(C(=O)c2ccc3c(c2)N(Cc2ccc(Cl)cc2)C(=O)c2ccccc2S3=O)C1 (configuration not stated) | inactive: 82% |
| Cc1noc(/C=C/c2ccccc2F)c1S(=O)(=O)N1CCC(C(=O)Nc2ccc(C#N)cc2)CC1 | inactive: 66% |
| CCCCNC(=O)CCn1c(=O)c2ccccc2n(Cc2cccc(Cl)c2)c1=O | inactive: 94% |

| SMILES | survival |
| --- | --- |
| O=C(C1CCN(S(=O)(=O)Cc2ccccc2)CC1)N1CCCc2ccccc21 | inactive: 106% |
| O=C(CSc1nc2ccsc2c(=O)n1-c1ccc(Br)cc1)NCc1ccccc1 | inactive: 80% |
| CCCCN(CC)C(=O)C1CCCN(c2ncnc3c2nc2n3CCCCC2)C1 (configuration not stated) | inactive: 73% |
| CCOc1ccc(CNC(=O)CCn2c(=O)c3cccn3c3ccc(F)cc32)cc1 | inactive: 72% |
| CCOC(=O)c1ccc(NC(=O)c2ccc(CN3C(=O)CCn4nc(C)cc43)cc2)cc1 | inactive: 132% |
| O=C(CSc1nnc2scc(-c3ccccc3)n12)Nc1ccc(Cl)cc1 | inactive: 53% |
| Cc1ccccc1C(=O)N1CCC(N2CCN(Cc3ccc(F)cc3)C(=O)C2=O)CC1 | inactive: 121% |
| O=C(Nc1cccc(C(F)(F)F)c1)Nc1cccs1 | active: 4% |
| CC1CCN(c2ccc(-c3nc(-c4ccccc4)no3)cc2[N+](=O)[O-])CC1 | inactive: 112% |
| CCc1cccc(C)c1NC(=O)CCCN1C(=O)C(c2ccccc2)Oc2cccnc21 (configuration not stated) | inactive: 94% |
| CCOC(=O)c1c(C)[nH]c(C)c1S(=O)(=O)N(C)CC(=O)NCc1cccc(Br)c1 | inactive: 85% |
| COc1ccc(NC(=O)NCCn2nnc3cc(S(=O)(=O)N(C)C)ccc32)cc1 | inactive: 59% |
| COCCOC(=O)C1=C(C)OC(N)=C(C#N)C1c1cc2cc3c(cc2nc1Cl)OCO3 (configuration not stated) | inactive: 110% |
| O=C(NCc1nc2ccccc2[nH]1)c1cccc(Cl)c1 | inactive: 89% |
| NC(=O)c1ccccc1NS(=O)(=O)c1ccccc1 | inactive: 111% |
| O=C(Cn1c(=O)c2ccccc2n2nncc12)Nc1cccc(F)c1 | inactive: 89% |
| CCc1cccc(C)c1NC(=O)CCCn1nc(C)c2sc3ccccc3c2c1=O | inactive: 90% |
| O=C1OCC2=C1C(c1ccc3c(c1)OCO3)Sc1ccccc1N2 (configuration not stated) | inactive: 125% |
| Cc1cc(N2CCCCC2)nc2ccc(NC(=O)/C=C/c3ccc(OCCC(C)C)cc3)cc12 | inactive: 71% |
| Cc1ccccc1Cn1cnc2nc3c(cc2c1=O)CC(C)CC3 (configuration not stated) | active: 0% |
| Cc1ccc(Cl)cc1NC(=O)CCn1c(=O)c2cccn2c2cccnc21 | inactive: 90% |
| CCN1CC=C2C(C1)C(c1ccc(Cl)s1)C(C#N)=C(N)C2(C#N)C#N (configuration not stated) | inactive: 91% |
| CCOc1ccc2nc(N3CCC(C(=O)Nc4cc(C)ccc4C)CC3)sc2c1 | inactive: 86% |

| SMILES | survival |
| --- | --- |
| COCCCNC(=O)c1ccc2c(c1)nc1n2CCCCC1 | inactive: 80% |
| S=C(Nc1ccccc1)Nn1cnnc1 | inactive: 112% |
| Cc1ccc(NC(=O)Cn2cc3c(n2)CCCC3)c(C)c1 | inactive: 86% |
| O=C(NC1CCCCC1)c1ccc(CSc2nc3ccncc3n2Cc2ccccc2F)cc1 | inactive: 94% |
| COc1ccc(NC(=O)CSc2nc(-c3cccs3)cc(C(F)(F)F)n2)c(OC)c1 | inactive: 71% |
| Oc1c(C(c2ccccc2Cl)N2CCN(Cc3ccccc3)CC2)sc2nc(-c3ccco3)nn12 (configuration not stated) | inactive: 73% |
| CCc1ccc(NC(=O)CSc2ccc(-c3cccs3)nn2)cc1 | inactive: 87% |
| O=C(CSCc1cnn(-c2ccccc2)c1-n1cccc1)NCc1ccc(F)cc1 | inactive: 88% |
| Cc1noc(Cn2c(=O)c3cc4c(cc3n(CC(=O)Nc3ccccc3F)c2=O)OCO4)n1 | inactive: 73% |
| CCOC(=O)c1cnc2ccc(OCC)cc2c1N1CCN(c2ccccc2F)CC1 | active: -12% |
| CCOC(=O)C1CCC(CN(Cc2ccc(OC)cc2)S(=O)(=O)c2ccc(F)c(C(=O)Nc3cc(C)ccc3C)c2)CC1 (configuration not stated) | inactive: 70% |
| Cc1nc(N2CCCC2)c2c(C(=O)Nc3ccc(Br)cc3F)c(C)oc2n1 | inactive: 19% |
| CCOc1ccc(NC(=O)c2ccc3snnc3c2)cc1 | inactive: 109% |
| Cc1ccc(NC(=O)CNCc2ccco2)cc1Cl | inactive: 101% |
| CC(C)NC(=O)C1CCC(Cn2c(=O)c3sccc3n(CC(=O)Nc3ccccc3)c2=O)CC1 (configuration not stated) | inactive: 81% |
| Cc1ccccc1C(=O)Nc1nc(-c2ccc(Br)cc2)ns1 | inactive: 70% |
| COc1ccc(-c2csc3nc(-c4ccccc4)oc(=O)c23)cc1OC | inactive: 126% |
| CCOC(=O)c1c(C)n(-c2ccccc2)c2ccc(OC(=O)c3cccc(Cl)c3)cc12 | inactive: 78% |
| FC(F)(F)c1cc(-c2cccc(Br)c2)nc2ncnn12 | inactive: 124% |
| Cc1cccc(-c2nc(CSc3nncn4c3cc3sccc34)c(C)o2)c1 | inactive: 84% |
| CCOC(=O)c1ccc(CN(Cc2ccccc2)S(=O)(=O)c2ccc(Cl)cc2)cc1 | active: 0% |
| CC(=O)c1cc(-c2ccccc2)n(CC(=O)NCCc2ccc(C)cc2)c1C | inactive: 70% |
| CC(C)Oc1ccc(CNC(=O)C2CCN(C(=O)N3CC(C)Oc4ccccc43)CC2)cc1 (configuration not stated) | inactive: 89% |
